Laboratory results taken from PubChem BioAssay AID1347165 (National Center for Advancing Translational Sciences (NCATS), 2019).
In all, about 220,000 compounds went through this assay and about 5,700 (2.6%) were called active. The shares of active, inactive and inconclusive entries below differ from those in the screen. Calls come from the whole dose curve; as a rule, active = well fitted inhibition curve with a large enough effect; inconclusive = small, poorly fitted or top-dose-only effect; inactive = no such curve, though single readings can be large or run the other way. Potencies of inconclusive entries are doubtful fits and often do not repeat.

The compounds below were run against Lysine-specific demethylase 5B (Homo sapiens) (UniProt Q9UGL1) (assay: Primary screen for KDM5B Histone Demethylases FDH-coupled qHTS). Settings: FDH-coupled NADH fluorescence (FDH is formaldehyde dehydrogenase); activity change, negative = inhibition: at 57.7 µM (top of the series) unless noted.
UniProt Q9UGL1, sequence (Q9UGL1 whole entry, looked up): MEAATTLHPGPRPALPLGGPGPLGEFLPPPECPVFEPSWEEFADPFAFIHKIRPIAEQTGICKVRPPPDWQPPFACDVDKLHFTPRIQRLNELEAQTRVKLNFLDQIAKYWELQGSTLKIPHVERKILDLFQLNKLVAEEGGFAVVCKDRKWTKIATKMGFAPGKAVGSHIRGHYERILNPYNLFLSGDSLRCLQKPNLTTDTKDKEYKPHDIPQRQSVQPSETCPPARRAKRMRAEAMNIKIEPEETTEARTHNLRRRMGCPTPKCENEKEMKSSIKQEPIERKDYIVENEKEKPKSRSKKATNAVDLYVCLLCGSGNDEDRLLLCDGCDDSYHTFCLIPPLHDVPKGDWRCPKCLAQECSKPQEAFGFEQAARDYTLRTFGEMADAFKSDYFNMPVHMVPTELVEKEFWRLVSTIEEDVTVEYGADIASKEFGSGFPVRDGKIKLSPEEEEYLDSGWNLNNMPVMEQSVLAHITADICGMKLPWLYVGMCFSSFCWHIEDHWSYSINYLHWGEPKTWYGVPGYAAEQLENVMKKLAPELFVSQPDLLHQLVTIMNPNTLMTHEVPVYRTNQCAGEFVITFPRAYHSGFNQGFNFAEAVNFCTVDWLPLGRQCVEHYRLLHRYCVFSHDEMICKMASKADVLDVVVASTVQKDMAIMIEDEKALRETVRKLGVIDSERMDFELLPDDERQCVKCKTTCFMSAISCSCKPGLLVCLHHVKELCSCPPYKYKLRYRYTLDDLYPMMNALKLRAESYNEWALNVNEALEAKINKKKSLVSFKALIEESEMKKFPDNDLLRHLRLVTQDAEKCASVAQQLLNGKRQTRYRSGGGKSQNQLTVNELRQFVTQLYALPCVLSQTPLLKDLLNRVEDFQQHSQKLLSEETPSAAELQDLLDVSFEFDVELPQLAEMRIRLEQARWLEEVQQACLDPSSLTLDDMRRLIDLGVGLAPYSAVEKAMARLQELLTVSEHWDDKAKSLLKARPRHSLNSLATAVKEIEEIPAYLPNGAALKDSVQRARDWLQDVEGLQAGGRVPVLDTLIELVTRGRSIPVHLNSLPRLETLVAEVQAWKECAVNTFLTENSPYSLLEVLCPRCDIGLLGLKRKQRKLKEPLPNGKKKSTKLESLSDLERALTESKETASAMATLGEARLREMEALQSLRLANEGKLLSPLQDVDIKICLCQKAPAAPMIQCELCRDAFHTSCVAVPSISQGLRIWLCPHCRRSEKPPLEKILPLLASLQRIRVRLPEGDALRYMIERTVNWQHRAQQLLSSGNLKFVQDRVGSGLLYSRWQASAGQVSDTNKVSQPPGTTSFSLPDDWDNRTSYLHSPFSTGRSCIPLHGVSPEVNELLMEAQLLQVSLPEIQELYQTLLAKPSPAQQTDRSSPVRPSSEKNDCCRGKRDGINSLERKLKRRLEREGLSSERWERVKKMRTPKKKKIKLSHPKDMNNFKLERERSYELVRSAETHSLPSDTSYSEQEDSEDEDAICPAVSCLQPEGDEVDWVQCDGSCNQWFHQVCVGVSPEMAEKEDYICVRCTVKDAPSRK
Procedure, shortened: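 qHTS format, multiple compound concentrations. Buffer 50 mM HEPES pH 7.5/0.01% Tween-20; 200 nM KDM5BΔAP final; 10 min compound preincubation; substrate-mix levels 12.5 µM peptide, 25 µM α-KG, 0.25 mM NAD⁺; 30 min RT; ΔRFU.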
Note: nearly all actives have a fitted effect of over 70% in size.
Potency is the fitted concentration of half-maximal effect; tags give direction and shape of the fitted curve.
Throughout, for activity change, negative = inhibition: 0% is about no effect.

| Compound | Potency | activity change, negative = inhibition |
| --- | --- | --- |
| COc1ccccc1N1CCCc2ncc(C(=O)Nc3cccc(F)c3)cc21 | inconclusive: 15.8 µM [inhibitor, partial curve, poor fit] |  |
| Cc1ccc(C(=O)/C=C/c2cccc(NC(=O)C(F)(F)F)c2)o1 | inconclusive: 39.8 µM [inhibitor, single point] |  |
| CCOc1ccc(-c2c(C)nn3c(C)c(C(=O)Nc4cccc(Cl)c4C)cnc23)cc1OCC | inconclusive: 28.2 µM [inhibitor, partial curve, poor fit] |  |
| CN1CCC2(C1)CN(CC1CC1)c1ccc(C(=O)NCC3CC3)cc12 (configuration not stated) | active: 35.5 µM |  |
| CC(C)CNC(=O)N1CCCC(c2noc(COc3ccccc3)n2)C1 (configuration not stated) | inactive |  |
| Cc1ccc(C)c(-c2ccc(C(=O)NCCCn3ccnc3C(C)C)cn2)c1 | inactive |  |
| CCOC(=O)CCn1c(=O)c2cccn2c2cccnc21 | inconclusive: 25.1 µM [inhibitor, partial curve, poor fit] |  |
| Cc1cc(C)n2ncc(-c3noc(C(=O)NCc4ccco4)n3)c2n1 | inconclusive: 28.2 µM [inhibitor, partial curve, poor fit] |  |
| Cn1nnnc1C1CCCN(C(=O)c2cccc3[nH]ccc23)C1 (configuration not stated) | active: 31.6 µM |  |
| NC(=O)NC(CC(=O)NC(Cc1ccccc1)c1ccccc1)c1ccccc1 (configuration not stated) | inactive |  |
| CN(C)c1ccc(/C=N/Nc2ccccc2Cl)cc1 | inconclusive: 20 µM [inhibitor, single point] |  |
| COc1ccc2c(O)c(-c3c(C)cc(C)cc3C)c(=O)[nH]c2c1 | inconclusive: 28.2 µM [inhibitor, single point] |  |
| COc1cccc(CNCC(O)COc2ccc(C(C)=O)cc2OC)c1 (configuration not stated) | inactive |  |
| CC(Sc1nnc(Nc2ccccc2)s1)C(=O)N(C)c1ccccc1 (configuration not stated) | inactive |  |
| O=C(Nc1ncn[nH]1)c1cccc(S(=O)(=O)N2CCCCC2)c1 | inactive |  |
| Cc1ccc(NC(=O)c2cc(-c3cccs3)nc3ccccc23)nc1 | inconclusive: 35.5 µM [inhibitor, partial curve, poor fit] |  |
| COc1ccc(OC)c(CNC(=O)c2cc(S(=O)(=O)N3CCC(C)CC3)cn2C)c1 | inconclusive: 6.31 µM [inhibitor, partial curve, poor fit] |  |
| CCNC(=O)N(C)[C@H]1C[C@H]2c3[nH]c4c(-c5cccc(C)c5)cccc4c3CCN2C[C@H]1[C@H](C)O | inconclusive: 3.55 µM [inhibitor, full curve, poor fit] |  |
| CC(C)OCCCNC(=O)Cn1nc2c(cc1=O)CCCCC2 | inactive |  |
| Cc1ccccc1NC(=O)c1cc2sccc2n1Cc1ccc(F)cc1 | inconclusive: 28.2 µM [inhibitor, partial curve, poor fit] |  |
| CN(c1ccccc1)S(=O)(=O)c1nnc(NC(=O)c2ccco2)s1 | inconclusive: 28.2 µM [inhibitor, single point] |  |
| CC(C)n1cc(CN2CCCN(S(=O)(=O)c3ccccc3)CCC(=O)NCC2)c2ccccc21 | inconclusive: 17.8 µM [inhibitor, partial curve, poor fit] |  |

| Compound | Potency | activity change, negative = inhibition |
| --- | --- | --- |
| CC1(C)C2CCC1(C(=O)Nc1cccc(C(F)(F)F)c1)c1nc(C#N)c(C#N)nc12 (configuration not stated) | inactive |  |
| COc1ccc(CNC(=O)C2CCN(S(=O)(=O)c3ccc4nc5c(c(C(=O)O)c4c3)CCCC5)CC2)cc1 | inconclusive: 17.8 µM [inhibitor, partial curve, poor fit] |  |
| Cn1nc2c(c1NC(=O)Cn1nc3c(cc1=O)CCCC3)CSC2 | inconclusive: 39.8 µM [inhibitor, single point] |  |
| CCc1ccc(CN2CCC(CNC(=O)c3ccc(C)nc3)C2)nc1 (configuration not stated) | active: 15.8 µM |  |
| Cc1cccc(CNC(=O)C2CC(c3ccc(F)c(C)c3)CN(C(=O)c3ccccc3)C2)c1 (configuration not stated) | inactive |  |
| COC(=O)c1cc(-c2ccc(OC(C)C)cc2)nc2ccccc12 | inconclusive: 28.2 µM [inhibitor, partial curve, poor fit] |  |
| CC(C)CCC(=O)N[C@@H]1CN(Cc2ccncc2)C[C@H]1CN(C)C | inconclusive: 31.6 µM [inhibitor, single point] |  |
| CCOc1ccccc1C(=O)NCc1nnc2c(-c3nc(C(C)C)no3)cccn12 | inconclusive: 28.2 µM [inhibitor, single point] |  |
| CC(C)CNc1nc(C(=O)Nc2ccc3cc[nH]c3c2)cs1 | inactive |  |
| CCc1cccc(C)c1NC(=O)C1CCN(c2nnc(C)c3c(C)n(-c4ccccc4)nc23)CC1 | inconclusive: 11.2 µM [inhibitor, partial curve, poor fit] |  |
| C[C@@H](NC(=O)c1ccc(Cl)cc1)c1c(-c2ccc(F)cc2)noc1C(=O)O | inconclusive: 31.6 µM [inhibitor, single point] |  |
| COC(=O)[C@@H]1Cc2c([nH]c3ccccc23)[C@H]2C[C@@H](NCc3cccnc3)C[C@@H](c3ccccc3)N21 | inconclusive: 17.8 µM [inhibitor, partial curve, poor fit] |  |
| Cc1cccc(NC(=O)C2CCN(S(=O)(=O)c3ccc4[nH]c5c(c4c3)CCCCC5)CC2)c1 | inconclusive: 28.2 µM [inhibitor, partial curve, poor fit] |  |
| O=C(Cn1ccn2nc3c(c2c1=O)CCCCC3)NCc1ccccc1Cl | inconclusive: 31.6 µM [inhibitor, partial curve, poor fit] |  |
| CC(=O)N1CCN(C(=O)c2ccc3c(c2)NC(C)(CNc2ccccc2)CO3)CC1 (configuration not stated) | inconclusive: 28.2 µM [inhibitor, partial curve, poor fit] |  |
| Cc1ccc(S(=O)(=O)Cn2nnnc2C(C(C)C)N2CCC(C(N)=O)CC2)cc1 (configuration not stated) | inactive |  |
| COc1cccc(NC(=O)CCSc2nc(-c3ccco3)cc(C(F)(F)F)n2)c1 | inconclusive: 31.6 µM [inhibitor, single point] | inconclusive: -586% [inhibitor] [at 11.5 µM] |
| COc1ccc2c(c1)CCc1c(C(=O)Nc3cnn(Cc4ccc(Cl)cc4Cl)c3)noc1-2 | inconclusive: 17.8 µM [inhibitor, partial curve, poor fit] |  |
| COC(=O)COc1ccc2c(C)c(CC(=O)OC)c(=O)oc2c1C | inconclusive: 22.4 µM [inhibitor, partial curve, poor fit] |  |
| c1ccc(-n2cc(CN3CCC(N4CCSCC4)CC3)nn2)cc1 | inactive |  |
| CC1(C)C2CC=C(/C=N/NC(=S)NCc3ccccc3)C1C2 (configuration not stated) | inactive |  |
| NC(N)=N/N=C/c1ccc([N+](=O)[O-])cc1 | inactive |  |

| Compound | Potency | activity change, negative = inhibition |
| --- | --- | --- |
| COc1ccc(-c2nc(CN3CCN(C(=O)NCCc4ccccc4)CC3)c(C)o2)cc1 | inactive |  |
| CC(=O)NC1(C)CCN(Cc2cccc(-c3cccc(Cl)c3)c2)C1 (configuration not stated) | inconclusive: 35.5 µM [inhibitor, single point] |  |
| Cc1ccc(S(=O)(=O)c2nnn3c2nc(NCc2ccccc2)c2sccc23)cc1 | inconclusive: 6.31 µM [inhibitor, partial curve, poor fit] |  |
| Cc1ccccc1-n1cc(-c2ccnc(NC(C)Cc3ccncc3)n2)cn1 (configuration not stated) | active: 25.1 µM |  |
| COc1ccc(C(=O)N[C@@H]2CN(Cc3ccncc3)C[C@H]2CN(C)C)c(OC)c1 | inconclusive: 35.5 µM [inhibitor, partial curve, poor fit] |  |
| Clc1ccc(Nc2nc(-c3ccccc3)c3ccccc3n2)c(Cl)c1 |  | inconclusive: -43.4% [inhibitor] [at 11.5 µM] |
| Cc1ccsc1C(=O)N1CCc2nn(CC3CC3)c(=O)n2CC1 | inconclusive: 0.891 µM [inhibitor, full curve, poor fit] |  |
| Cc1cc(C(=O)NCc2ccnc(N3CCCC3)c2)on1 | inactive |  |
| O=C(COc1ccc(-n2cnnn2)cc1)NC1CC1 | inactive |  |
| O=C(Cc1c[nH]c2ncc(-c3ccc4c(c3)OCO4)cc12)N1CCOCC1 | inconclusive: 39.8 µM [inhibitor, partial curve, poor fit] |  |
| CSc1ccc(/C=N\Nc2nncn2N)cc1 | inconclusive: 39.8 µM [inhibitor, single point] |  |
| CCC1=C(C(=O)OC)C(c2ccc(C)cc2C)N2C(CC(=O)N3CCCCC3C)=CSC2=N1 (configuration not stated) | inconclusive: 31.6 µM [inhibitor, partial curve, poor fit] |  |
| Cc1ccc(NC(=O)C2CCCN(c3cnccn3)C2)cc1Cl (configuration not stated) | inconclusive: 15.8 µM [inhibitor, partial curve, poor fit] |  |
| CCn1cc(S(=O)(=O)N2CCCC(c3nn[nH]n3)C2)cn1 (configuration not stated) | inconclusive: 11.2 µM [inhibitor, partial curve, poor fit] |  |
| COC[C@@H]1CN(S(=O)(=O)c2ccc3c(c2)CCCC3)C[C@H]1C(N)=O | inactive |  |
| CCOCCCNC(=O)C1CCN(c2cnn(CC3CC3)c(=O)c2)C1 (configuration not stated) | inactive |  |
| COC(=O)c1ccccc1NC(=O)CNCCc1ccc(OC)c(OC)c1 | inconclusive: 15.8 µM [inhibitor, partial curve, poor fit] |  |
| COCC1CN(C)CC12CCN(S(=O)(=O)c1ccc(C#N)cc1)CC2 (configuration not stated) | inconclusive: 15.8 µM [inhibitor, partial curve, poor fit] |  |
| Cc1ccnc(NC(=O)Cc2nc(-c3ccccc3)oc2C)c1 | inactive |  |
| COCCN1CCNc2nc(COc3cccc(C#N)c3)n(Cc3ccccc3)c2C1=O | inactive |  |
| O=C(OCc1nc2ccccc2o1)c1ccc2ccccc2c1 | inconclusive: 22.4 µM [inhibitor, single point] |  |
| COc1cc(/C=C(/C#N)C(=O)Nc2cccc(C(F)(F)F)c2)ccc1OC(F)F | inconclusive: 15.8 µM [inhibitor, partial curve, poor fit] |  |
